# Test results taken from the supplement of paper PMC3334620.
# Over roughly 33,000 sequences, “E-score (-0.5 to 0.5)” has its median near -0.013; the highest 2% begin near 0.3. The list shows a part of the results.
# Biological target: T1, Msn1 (UniProt P22148)
# T1 sequence: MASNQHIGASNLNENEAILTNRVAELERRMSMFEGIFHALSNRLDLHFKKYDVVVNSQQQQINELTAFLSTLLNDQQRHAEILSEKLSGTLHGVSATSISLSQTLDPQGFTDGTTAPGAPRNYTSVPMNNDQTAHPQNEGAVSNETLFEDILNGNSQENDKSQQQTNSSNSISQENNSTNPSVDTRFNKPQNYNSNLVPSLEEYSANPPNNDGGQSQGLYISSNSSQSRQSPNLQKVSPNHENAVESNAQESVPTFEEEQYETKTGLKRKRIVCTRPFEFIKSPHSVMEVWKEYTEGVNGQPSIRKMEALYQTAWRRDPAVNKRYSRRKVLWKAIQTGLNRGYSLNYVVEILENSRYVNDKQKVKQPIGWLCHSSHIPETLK
# Assay: PBM E-score (8-mer binding enrichment) (E-score (-0.5 to 0.5)); higher = stronger / more preferred TF binding; most listed sequences are background and not binding sites
# Conditions: protein concentration: 200 nM; construct: GST-full length
# In short: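 E-scores (a modified Wilcoxon-Mann-Whitney statistic) were assigned by the Universal PBM Analysis Suite to every ungapped eight-base word pooled with its reverse complement. The input came from universal all-10-mer Agilent arrays made double-stranded by primer extension and probed with GST-tagged yeast transcription factors at about 100-200 nM. Fluorescent anti-GST detected bound protein, and masliner normalised the scans.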
row,Sequence,PBM E-score
1,GTGCGAGA,0.0839
2,TGATGAAA,0.0157
3,GCAGGAAA,0.102
4,TCATTGGA,0.0486
5,CTCATTAA,0.0526
6,CCCTATGA,-0.0647
7,CCATTGCG,-0.236
8,ATAAGCAA,-0.0425
9,TGAGTACA,0.231
10,TGAGACAA,0.397
11,AAGGCACT,-0.192
12,ATGCGGTG,-0.273
13,GAACCATA,0.171
14,CCTTGAAA,0.0281
15,CCGTGCAA,-0.0163
16,AGAGTAAG,-0.0354
17,GGATGACC,-0.177
18,AACACTAT,0.215
19,AGTGTCAC,-0.0188
20,CTGTCGTC,0.174
21,AGGGGTCG,-0.391
22,CTGCTGAA,-0.0537
23,GACCAGCC,-0.122
24,TACAACTA,0.0189
25,AGCAGCAC,-0.0943

row,Sequence,PBM E-score
1,ATGAAACA,-0.013
2,GACCGAGC,-0.11
3,ACTACTCT,-0.0492
4,ACTGGACA,0.374
5,ACGTGACA,0.27
6,AGAAACCT,-0.106
7,ACACCGAA,0.171
8,GTCCGTCA,0.225
9,AGCGTCTA,-0.176
10,CAGCGTTC,-0.0931
11,AATGTATA,0.323
12,GCATGGAA,-0.152
13,GCAATAAC,0.0837
14,GACCGACA,0.161
15,GCTTTATA,-0.0159
16,AATAGGAC,0.387
17,AATCGTAC,0.0195
18,ATAGTATA,0.0628
19,CTTCAAAA,0.0311
20,CAGTCAGC,-0.297
21,AAAATGGA,0.294
22,GAATCGAA,0.015
23,ACTCAATA,0.194
24,CATGTACG,0.195
25,AGCGCTTG,-0.0326

row,Sequence,PBM E-score
1,GTGGTAAC,0.0646
2,ATATGGAA,0.057
3,CGTCAAAA,0.125
4,CTGGTAGC,0.0885
5,CATAGTCG,0.08
6,ACCGGACG,-0.0239
7,AAGAATGC,-0.0519
8,CGTATTGA,-0.0137
9,ACCCTCCG,-0.278
10,CAAGGACA,0.484
11,AACAACAG,0.19
12,ACTATAAA,0.254
13,GGGCACTA,-0.144
14,ATATCTTG,0.0178
15,AATCGACG,-0.04
16,AGTTCAGC,-0.139
17,ATGAAGTA,0.0825
18,TAAAAATA,0.194
19,AATCTCGT,-0.00803
20,CCTCACAA,-0.0919
21,GAATATAC,-0.0522
22,CGATTGGA,-0.00295
23,GTCGTCAA,0.091
24,AGAGTGTC,0.229
25,CTCAAAGA,-0.0783

row,Sequence,PBM E-score
1,ATATGCAT,-0.0416
2,GTATAGTA,0.195
3,CAGGTCCC,-0.309
4,AGCACATG,-0.0192
5,ACAGAAAG,0.00925
6,AACAGTGC,0.00413
7,CTTAATAA,0.0259
8,GAGACAAA,0.442
9,CACGAGTG,-0.2
10,GAAATAAC,0.157
11,GGCGGTGA,-0.131
12,ACCTTTAC,-0.0103
13,ACGGCTAA,0.113
14,GCAGTCGA,-0.189
15,CGCGCCCA,-0.0844
16,TAACTTAA,0.269
17,TATCAACA,-0.0729
18,AAAACGAT,0.0794
19,CAAGGAGA,-0.0916
20,ATTATACA,0.126
21,CCGAACCG,0.00404
22,AGCGACAT,0.252
23,CAACAGCG,-0.192
24,CGGAGGAG,-0.119
25,ACGCTCGG,0.053

row,Sequence,PBM E-score
1,AACGCCCT,-0.158
2,CTTAAGTC,0.0734
3,GAGGGACC,-0.268
4,CAAATCGC,-0.0738
5,GGGGCCAC,-0.325
6,GCCGGCAC,0.115
7,GGATGCAC,-0.15
8,ATTCGAAA,0.0661
9,AGTTGGTC,-0.0955
10,ACATATAA,0.276
11,AACTACGT,-0.0327
12,GTTAGCCA,-0.179
13,ATGACAGA,0.137
14,ATTACAGG,0.0652
15,ATCTAAGA,0.159
16,ACGTAACA,0.0355
17,AAGGGAAC,-0.291
18,ACGGCCGT,-0.204
19,GGACCGAA,0.155
20,CGCAATAA,0.212
21,TAGTGCAA,0.0976
22,CATAACGA,-0.0508
23,ATGTGTGC,-0.0431
24,CTTGCGGA,-0.0335
25,GGAAAGAC,-0.0443

row,Sequence,PBM E-score
1,TCTATTAA,0.0653
2,AGTCCAAG,0.0604
3,GAAATTTA,0.226
4,ATAAAAGG,0.0311
5,GCGACCTA,0.0106
6,AGGACAAC,0.436
7,GCTGGTGA,-0.0671
8,CCTAAGCG,-0.0144
9,GCAATACC,-0.00772
10,GGCAAAAC,-0.0158
11,CACGAAAC,-0.0336
12,CCGTGCCA,-0.27
13,TAGCAGCA,0.0532
14,CCGACGCG,-0.0341
15,TAATGGGA,-0.0259
16,ATATAAGC,-0.0877
17,ACATGCTC,0.028
18,ACGATATA,-0.0323
19,CACAGAAG,0.00761
20,CCTCCAAC,-0.208
21,TCATCCGA,0.183
22,ACGTGGCA,-0.257
23,AGGTTGTA,0.0888
24,ACCCACGG,-0.17
25,CCGCCTCG,-0.0878

row,Sequence,PBM E-score
1,TTCATAAA,0.0858
2,GGCGACGA,-0.071
3,CGGGCTTC,-0.144
4,ACAGGAAC,0.22
5,AAATGCGA,0.145
6,GCATTGTA,-0.16
7,GACTTATA,0.276
8,ATCTCGGA,0.241
9,AGTGTCGA,0.1
10,CAATTGTC,0.445
11,ACACTACG,0.049
12,AGGAGTCA,-0.0247
13,CGACGACA,0.17
14,CGTTCGAG,-0.0922
15,ACCACGGC,-0.0184
16,AATGTCGA,0.299
17,GGAAGAAC,-0.012
18,CAACAGTG,0.0581
19,ACACCCCA,-0.0684
20,CTACTACA,0.241
21,GAATTATA,0.161
22,CGATTGAG,-0.043
